# In PubChem BioAssay AID485281 (National Center for Advancing Translational Sciences (NCATS), 2010):
# Out of some 350,000 compounds screened, about 260 (0.074%) were called active. The inconclusive results got no clear call from the source; some entries with a clear call stand among them for comparison. The call rests on the fitted dose curve; in most records, active means well fitted inhibition curve with a large enough effect; inconclusive means small, poorly fitted or top-dose-only effect; inactive means no such curve, though single readings can be large or run the other way. Where the call is inconclusive, the potency comes from a doubtful curve fit.
# Biological target: Ferritin light chain (Equus caballus) (UniProt P02791)
# Experiment: qHTS Assay for Identification of Novel General Anesthetics; further: nearly all actives have a fitted effect of over 20% in size
# Details: apoferritin/1-aminoanthracene competitive binding, fluorescence; activity change, negative = displacement: at 77.5 µM (top of the series)
# Source text: Source: NIH Chemical Genomics Center [NCGC]
# Assay Submitter: Roderic Eckenhoff, University of Pennsylvania
# Screening Center PI: Christopher P. Austin, NIH
# Probe Development: NIH Chemical Genomics Center [NCGC]
# Anesthetic development has remained a largely empirical process. There are growing concerns about the cognitive effects of known general anesthetics and acceleration of the onset of neurodegenerative disease. The compounds' toxicity and multiple specific binding targets in the mammalian brain [4] has made them less attractive as drug leads. In this assay, a GABAergic mimetic model system, apoferritin and a profluorescent 1-aminoanthracene ligand (1-AMA), was used to construct a competitive binding assay for identification of novel general anesthetics. The assay was validated for 1-AMA using other known anesthetics, such as isoflurane (CID:3763) and propofol (CID: 4943), [6].
# [1] S.L. Bianchi, T. Tran, C. Liu, S. Lin, Y. Li, J.M. Keller, R.G. Eckenhoff, and M.F. Eckenhoff, Brain and behavior changes in 12-month-old Tg2576 and nontransgenic mice exposed to anesthetics. Neurobiol Aging 29 (2008) 1002-10.
# [2] Z. Xie, Y. Dong, U. Maeda, R.D. Moir, W. Xia, D.J. Culley, G. Crosby, and R.E. Tanzi, The inhalation anesthetic isoflurane induces a vicious cycle of apoptosis and amyloid beta-protein accumulation. J Neurosci 27 (2007) 1247-54.
# [3] P. Honegger, and J.M. Matthieu, Selective toxicity of the general anesthetic propofol for GABAergic neurons in rat brain cell cultures.
# [4] M.F. Eckenhoff, K. Chan, and R.G. Eckenhoff, Multiple specific binding targets for inhaled anesthetics in the mammalian brain. J Pharmacol Exp Ther 300 (2002) 172-9.
# [5] C.A. Butts, J. Xi, G. Brannigan, A.A. Saad, S.P. Venkatachalan, R.A. Pearce, M.L. Klein, R.G. Eckenhoff, and I.J. Dmochowski, Identification of a fluorescent general anesthetic, 1-aminoanthracene. Proc Natl Acad Sci U S A 106 (2009) 6501-6.
# [6] W.A. Lea, J. Xi, A. Jadhav, L. Lu, C.P. Austin, A. Simeonov, and R.G. Eckenhoff, A high-throughput approach for identification of novel general anesthetics. PLoS One 4 (2009) e7150.
# Three uL of reagents (free 1-AMA (50% saturated solution of 1-aminoanthracene
# in PBS) in columns 3, 4 as negative control and 1-AMA/apoferritin mixture (10 uM horse-spleen apoferritin in 50% saturated 1-aminoanthracene in PBS) in columns 1, 2, 5-48) was dispensed into 1536-well Greiner black assay plates. Compounds (23 nL) were transferred via Kalypsys pintool equipped with 1,536-pin array (10 nL slotted pins, V&P Scientific, San Diego, CA). Titration of the positive control, propofol, were delivered via pin transfer from separate control plates to the 2nd column of each assay plate. The starting concentration of the control, dissolved in DMSO, was at 160 mM, followed by two-fold dilution points in duplicate, for a total of 16 concentrations. The plates were incubated for 10 min at room temperature, and then read on an EnVision HTS multilabel reader (Perkin-Elmer, Waltham, MA) (end point read, 3 min/plate) using Fura2 BFP excitation filter (380 nm, bandwidth 10 nm) and fluorescein emission filter (535 nm, bandwidth 25 nm) set. A LANCE/DELFIA dichroic mirror with a cutoff wavelength at 400 nm was used to maximize signal accuracy and strength. Vehicle-only plates, with DMSO being pin-transferred to the entire column 5-48 compound area, were inserted uniformly at the beginning and the end of each library in order to monitor for and record any shifts in the background. Activity was computed as the normalized fluorescence response relative to free 1-AMA and 1-AMA/apoferritin complex values. Concentration-effect relationships were derived by using curve fitting algorithms developed in-house (http://ncgc.nih.gov/pub/openhts/). A four parameter Hill equation was fitted to the concentration-response data by minimizing the residual error between the modeled and observed responses.
# On the % scale 0 is the no-effect control and ±100 the full control effect; potency means the concentration at half of the fitted maximal effect; tags describe the fitted curve by direction and shape.
# Chain of UniProt P02791 (P02791 whole entry, looked up): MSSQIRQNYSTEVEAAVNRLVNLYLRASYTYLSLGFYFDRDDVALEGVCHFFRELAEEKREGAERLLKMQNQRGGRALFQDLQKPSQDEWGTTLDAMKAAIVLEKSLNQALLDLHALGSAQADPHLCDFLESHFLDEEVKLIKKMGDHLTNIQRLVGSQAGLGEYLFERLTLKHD
SMILES,Potency,"activity change, negative = displacement"
NS(=O)(=O)c1ccc(NC(=O)C2COc3ccccc3O2)cc1 (configuration not stated),"inconclusive: 31.6 µM [inhibitor, partial curve]",–
COc1ccc(-c2nc(-c3cccs3)c(-c3cccs3)[nH]2)cc1OC,–,inactive: -14.8%
COc1ccc(CCNc2ncnc3c2cnn3-c2cccc(Cl)c2)cc1,–,inactive: -6.69%
O=C(Cc1cccs1)N/N=C/C=C/c1ccco1,–,inactive: -10.7%
N#CCSc1nc(N)c(C#N)c(C2CCCCC2)c1C#N,"inconclusive: 31.6 µM [inhibitor, partial curve]",–
C/C(=N/NC(=O)CNC(=O)c1ccco1)c1ccc(Cl)cc1,"inconclusive: 50.1 µM [inhibitor, single point]",–
COc1ccc(-c2cc(C(F)F)nc(-n3nc(C)cc3C)n2)cc1,"inconclusive: 35.5 µM [inhibitor, partial curve]",–
Cc1ccc(Cn2cc(/C=N/Nc3ccc([N+](=O)[O-])cn3)c3ccccc32)cc1,–,inactive: -1.96%
CN1C(=O)C2(SCC(=O)N2c2cccc(C(F)(F)F)c2)c2ccccc21 (configuration not stated),"inconclusive: 3.55 µM [inhibitor, partial curve]",–
Cc1noc(C)c1CSCC(=O)NC1=NCCS1,"inconclusive: 28.2 µM [inhibitor, single point]",–
COc1ccc(-c2onc(C)c2C)cc1S(=O)(=O)N(C)Cc1ccco1,–,inactive: -8.69%
CCOC(=O)C1CCN(CC(=O)N2CCCc3c2c(=O)oc2ccc(OCc4ccccc4)cc32)CC1,–,inactive: -7.33%
COc1cc(/C=C/C(=O)Nc2cc(C(F)(F)F)ccc2Cl)cc(OC)c1OC,"inconclusive: 35.5 µM [inhibitor, partial curve]",–
CCC(C)N(CCNC(=O)c1ccc2c(c1)NC(=O)c1ccccc1S2)C1CCCCC1 (configuration not stated),"inconclusive: 3.16 µM [inhibitor, full curve, poor fit]",–
CCCCCOC(=O)C1=C(C)NC(=O)NC1c1ccc(OC)cc1 (configuration not stated),"inconclusive: 28.2 µM [inhibitor, single point]",–
CCCn1nc(NC(=O)c2ccco2)c2cc3ccc(C)cc3nc21,–,inactive: 93.6%
O=Cc1ccccc1OCCCOc1cccc2cccnc12,"inconclusive: 2.51 µM [inhibitor, full curve]",–
CCc1nnc(NC(=O)[C@@H](NC(=O)c2cccc(S(=O)(=O)N(CC)CC)c2)C(C)C)s1,"inconclusive: 39.8 µM [inhibitor, partial curve]",–
CCOCC(=O)Nc1ccc(OCc2ccccc2)cc1,"inconclusive: 17.8 µM [inhibitor, partial curve]",–
CCOC(=O)C1=C(CSc2nc3c(cc2C#N)CCC3)OC(N)=C(C#N)C1c1ccccc1 (configuration not stated),"inconclusive: 10 µM [inhibitor, partial curve]",–
Cc1ccc(Cl)cc1NC(=O)CSC1=Nc2ccccc2C2=NC(Cc3ccccc3)C(=O)N12 (configuration not stated),–,inactive: -2.34%
O=C(NC1CCCCC1)N1CCC(c2nc3ccc(Cl)cc3[nH]2)CC1,"inconclusive: 28.2 µM [inhibitor, partial curve]",–
COCCN1Cc2c(sc(C)c2C)N(C(=O)c2ccccc2)C1,–,inactive: -20.8%

SMILES,Potency,"activity change, negative = displacement"
O=c1c(=O)n(-c2cccc(Cl)c2)ccn1Cc1cccc(F)c1,–,inactive: 5.74%
CC1(C)OC(c2ccccc2)=C/C(=C/C=N/NC(=O)c2ccncc2)O1,"inconclusive: 35.5 µM [inhibitor, partial curve]",–
Cn1c(Sc2ccc(C(F)(F)F)cc2[N+](=O)[O-])nnc1-c1ccccc1,"inconclusive: 25.1 µM [inhibitor, partial curve]",–
O=C(CCSc1nc(-c2ccco2)cc(C(F)(F)F)n1)N1CCN(c2ccccc2)CC1,"inconclusive: 50.1 µM [inhibitor, single point]",–
COc1ccc(NC(=O)Cn2nnc(C(=O)NCCc3ccccc3)c2N)c(OC)c1,"inconclusive: 3.16 µM [inhibitor, partial curve, poor fit]",–
CCOC(=O)CC(=O)CSc1nc(N)c(C#N)c(-c2ccc(F)cc2)c1C#N,"inconclusive: 14.1 µM [inhibitor, partial curve]",–
CC(C)(O)C#Cc1ccc([C@@H]2C[C@H]3CN(c4ccccc4)C(=O)[C@]34CCCN24)s1,"inconclusive: 39.8 µM [inhibitor, partial curve]",–
O=C(c1cccnc1)n1nc(NCc2ccccc2)nc1NCc1ccccc1,"inconclusive: 15.8 µM [inhibitor, partial curve]",–
O=C1C(CSCc2ccccc2)NC(=S)N1c1ccccc1 (configuration not stated),–,inactive: -8.69%
Nc1cc(-c2ccccc2)nn1Cc1ccc(Cl)cc1,"inconclusive: 35.5 µM [inhibitor, partial curve]",–
CCOC(=O)c1c(NC(=O)CSc2nnc(-c3cccnc3)n2Cc2ccco2)sc(C)c1C,"inconclusive: 11.2 µM [inhibitor, partial curve]",–
CC(C)CSc1nnc2c3ccccc3n(C)c2n1,"inconclusive: 44.7 µM [inhibitor, single point]",–
COc1ccc(N2CCN(C(=O)c3ccc(CS(=O)(=O)c4ccccc4C)o3)CC2)cc1,"inconclusive: 28.2 µM [inhibitor, partial curve]",–
Cc1cccc(NC(=O)C2COc3ccccc3O2)c1 (configuration not stated),"inconclusive: 50.1 µM [inhibitor, single point]",–
CCOc1ccc(C(=O)NC(=S)Nc2cccnc2)cc1[N+](=O)[O-],–,inactive: -1.94%
Cc1occc1C(=O)NCCCCc1ccccc1,"inconclusive: 31.6 µM [inhibitor, single point]",–
COc1ccc(Cn2c(C(F)(F)F)ccc(C(N)=O)c2=O)cc1,"inconclusive: 22.4 µM [inhibitor, partial curve]",–
CC(=O)c1cccc(NC(=O)C2CCCC2)c1,"inconclusive: 25.1 µM [inhibitor, single point]",–
CC(=O)Oc1cccc(NC(=O)c2cccc(C(=O)Nc3cccc(OC(C)=O)c3)c2)c1,"inconclusive: 31.6 µM [inhibitor, partial curve]",–
CCCCC1(CO)C(=O)N(c2ccccc2)N(c2ccccc2)C1=O,–,inactive: -0.712%
COCCn1c(SCC(=O)NCc2ccc3c(c2)OCO3)nnc1C(C)C,–,inactive: -6.56%
Cc1ccc(N2CCN(C(=O)Nc3cccc([N+](=O)[O-])c3)CC2C)cc1 (configuration not stated),"inconclusive: 28.2 µM [inhibitor, partial curve]",–
Cc1nc2ccccc2n1CCc1nc2c3ccccc3nc(SCC(=O)NCc3ccco3)n2n1,"inconclusive: 17.8 µM [inhibitor, partial curve]",–

SMILES,Potency,"activity change, negative = displacement"
O=C(COC(=O)c1cccs1)NC1CCCCC1,"inconclusive: 31.6 µM [inhibitor, partial curve]",–
Cc1ccc2c(c1)N(CC(=O)NC1CCCC(C)C1C)C(=O)c1cccnc1O2 (configuration not stated),"inconclusive: 35.5 µM [inhibitor, partial curve]",–
Clc1cccc(-c2ccc(CNCc3ccccn3)o2)c1,"inconclusive: 20 µM [inhibitor, partial curve]",–
O=C(N/N=C/c1coc2ccc(Cl)cc2c1=O)c1cc(O)cc(O)c1,"inconclusive: 22.4 µM [inhibitor, partial curve]",–
COc1ccc(C(=O)N2CCN=C2SCc2cccnc2)c(OC)c1,"inconclusive: 35.5 µM [inhibitor, single point]",–
N#CCC(=O)N/N=C\c1ccc(OC/C=C/c2ccccc2)cc1,"inconclusive: 11.2 µM [inhibitor, partial curve]",–
COc1ccccc1/C=C(/C(=O)OCC(=O)Nc1ccc(N(C)C)cc1)c1ccccc1,"inconclusive: 25.1 µM [inhibitor, partial curve, poor fit]",–
Cc1ccc(N2C(=S)N=C(Nc3ccccc3C)C23CCOC(C)(C)C3)cc1 (configuration not stated),"inconclusive: 12.6 µM [inhibitor, partial curve]",–
COc1cc(CNc2nnnn2C)ccc1OCc1ccc(F)cc1Cl,"inconclusive: 7.94 µM [inhibitor, partial curve]",–
S=c1[nH]nc(COc2ccccc2)n1/N=C/c1ccc(Br)s1,"inconclusive: 15.8 µM [inhibitor, partial curve]",–
Cc1cc(Cl)c(OCCn2ccnc2)c(Br)c1,"inconclusive: 50.1 µM [inhibitor, single point]",–
Cc1ccc(CNC(=O)c2ccc(Cn3c(SCc4ccccc4F)nc4cccnc43)cc2)cc1,"inconclusive: 3.55 µM [inhibitor, single point]",–
CCOc1cc(CNc2ccc(O)cc2)ccc1OCc1ccc(Cl)cc1,"inconclusive: 10 µM [inhibitor, partial curve]",–
CCCN(CC1CC1)C(=O)CSc1ncnc2sc(C)c(C)c12,"inconclusive: 39.8 µM [inhibitor, partial curve]",–
CCC(C)(C)C(=O)Nc1cc([N+](=O)[O-])ccc1F,"inconclusive: 28.2 µM [inhibitor, single point]",–
O=C(CSc1ncc(-c2ccc(F)cc2)n1Cc1ccco1)Nc1ccc2c(c1)OCO2,–,inactive: 3.92%
Cc1ccc(NC(=O)c2sccc2-n2cccc2)c(Cl)c1,"inconclusive: 31.6 µM [inhibitor, single point]",–
CCCCCCCCCCOC(=O)Cn1c(COc2ccccc2OC)[n+](C)c2ccccc21,"inconclusive: 15.8 µM [inhibitor, partial curve]",–
CCN(CC)CCNC(=O)c1ccc2c(c1)sc1nc(-c3ccc(F)cc3)cn12,–,inactive: -11.9%
CCCn1nc([N+](=O)[O-])c(C(C#N)c2nc3ccccc3o2)c(Cl)c1=O (configuration not stated),"inconclusive: 31.6 µM [inhibitor, single point]",–
CSc1nc(SCC(=O)NCc2ccco2)c2c3c(sc2n1)COC(C)(C)C3,"inconclusive: 39.8 µM [inhibitor, single point]",–
